Experimental findings from PubChem BioAssay (NCATS) are described below.

This is one part of the list. These are further read-outs of the screen, such as a control signal, another cell line or another target. No call is given for them. For part of these data: Compounds called inactive in the main read-out are mostly missing here. Potencies come from curve fits of mixed quality, noted in brackets.

Assay [1] can be described thus: qHTS drug screen for cell cycle checkpoint inhibitors in PARPi-resistant BRCA-mutant ovarian cancer cell lines. (AID 1963452). The following applies: PEO1/OlaR viability, CellTiter-Glo luminescence, 96 h. The method in brief: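 PEO1, PEO4 and PEO1/OlaR ovarian cancer cells, 600 per well, exposed 96 h at 37C to a dilution series. Viability read by CellTiter-Glo luminescence, normalized to DMSO and empty wells; activity summarized as Z-AUC.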

Assay [2] can be described thus: qHTS for identification of novel therapeutic agents for treatment of microphthalmiaassociated transcription factor (MiT) renal cell carcinoma (RCC) (AID 1963991).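 On z-score: curves scaled with 100% = DMSO viability and 0% = empty wells.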 The following applies: CellTiter-Glo, 48 h; for z-score: stronger effect = lower value. Put shortly: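 UOK109/UOK124/UOK145 (TFE3 fusions, three partners); 500 cells/well; MIPE v4.0, 1912 cpds, 11 conc.; 48 h, 37 C; CellTiter-Glo, 15 min RT; lum. Norm.: DMSO 100%, empty 0%.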

A short description of assay [3]: S16 Schwann cell PMP22 intronic element beta-lactamase assay (AID 624044). Further: nearly all actives have a fitted effect of over 15% in size. The following applies: S16 rat Schwann cells, PMP22 element beta-lactamase FRET, 24 h; measured here: 530 nm viability channel. The method in brief:
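Beta-lactamase reporter under a PMP22 intronic regulatory element in stable S16 rat Schwann cells; 24 h compound exposure. 460 nm blue signal normalized between DMSO (0%) and potassium clavulanate, with 535 nm FRET tracking viability; curves classed by r2 and response.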

Assay [4] in a line: qHTS Validation Assay to Find Inhibitors of Chronic Active B-Cell Receptor Signaling (AID 485345). The following applies: ABC-DLBCL cells, chronic BCR signaling reporter; measured here: CBR control luciferase (viability counter). The method in brief:
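Read-out: ratio of filter-corrected green (IkappaBalpha fusion) to red (native) luciferase signal in doxycycline-induced TMD8 cells after 4 h at 37C. Titration spanned 46 uM–3 nM; Data were normalised to basal cells and 10 uM MG-132 wells.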
A general note: Quantitative high-throughput screening tests each substance at several concentrations.

The mark [5] stands for this setting: TFE3-RCC UOK109 viability, measured here: UOK109 Z-AUC.
[6] abbreviates: TFE3-RCC viability, measured here: UOK124 Z-AUC.
Setting [7] is: TFE3-RCC viability, measured here: UOK124 cell viability.
Setting [8] is: TFE3-RCC viability, measured here: UOK145 Z-AUC.
[9] abbreviates: TFE3-RCC viability, measured here: UOK145 cell viability.
[10] abbreviates: measured here: PEO1 parental viability.
Tags describe the fitted curve by direction and shape.

For the molecule `Cc1cc(Cl)ccc1OCCCC(=O)NO`, the AC50 is 19500 nM [falling, partial curve] in assay [1] (measured here: PEO4 viability); 16600 nM [falling, partial curve] in assay [2] (setting [7]); 26400 nM [falling, single point] in assay [2] (setting [9]). Further, the z-score in assay [2] (setting [5]) is -1.15; in assay [2] (setting [6]), 0.815; in assay [2] (setting [8]) it was -0.215.

Take `C#CCN[C@@H]1CCc2ccccc21`: the AC50 is 1580 nM [falling, full curve, poor fit] in assay [3] and 13800 nM [rising, partial curve, poor fit] in assay [1] (setting [10]).

On to `COc1cc(SC)ccc1C(=O)N1CCC(Cc2ccccc2)CC1`, for which the AC50 in assay [4] is 1840 nM [falling, full curve]; in assay [1] (setting [10]), 15500 nM [falling, single point].

For `C=CC(=O)Nc1cccc(Nc2nc(NC3CCC(N(C)C)CC3)nc3c2ncn3C(C)C)c1` (stereo not given), the AC50 in assay [2] (setting [7]) was 1870 nM [falling, full curve]; in assay [2] (setting [9]), 3720 nM [falling, full curve].

Take `C[C@@H]1O[C@@H](O[C@H]2CC[C@@]3(C)[C@H](CC[C@@H]4[C@H]3C[C@@H](O)[C@]3(C)[C@@H](C5=CC(=O)OC5)CC[C@]43O)C2)C[C@H](O)[C@@H]1O[C@H]1C[C@H](O)[C@H](O[C@H]2C[C@H](O)[C@@H](O)[C@@H](C)O2)[C@H](C)O1` (stereo in doubt): the AC50 in assay [2] (setting [7]) was 340 nM [falling, full curve]; in assay [2] (setting [9]) it was 215 nM [falling, full curve].

Consider `CCN(CC)CCNC(=O)c1c(C)[nH]c(C=C2C(=O)Nc3ccc(F)cc32)c1C`, for which the AC50 was 4810 nM [falling, full curve] in assay [2] (setting [7]) and 8550 nM [falling, full curve] in assay [2] (setting [9]).

On to `Cc1[nH]c2ccccc2c1CCNCc1ccc(C=CC(=O)NO)cc1`, for which the AC50 in assay [2] (setting [7]) was 235 nM [falling, full curve]; in assay [2] (setting [9]), 833 nM [falling, full curve].

As to `Cc1cccc(C=NNc2cc(N3CCOCC3)nc(OCCc3ccccn3)n2)c1`, the concentration at half-maximal activity (AC50) is 743 nM [falling, full curve] in assay [2] (setting [7]) and 7430 nM [falling, partial curve] in assay [2] (setting [9]).

`O=C(CCN1CCN(C(=O)OCc2cc(Cl)cc(Cl)c2)CC1)c1ccc2[nH]c(=O)oc2c1`: the z-score in assay [2] (setting [5]) stood at 0.799; in assay [2] (setting [6]), 0.705; in assay [2] (setting [8]), 0.515.

For the molecule `O=C1NC(=O)[C@@H](c2cn3c4c(cccc24)CCC3)[C@H]1c1c[nH]c2ccccc12`, the AC50 in assay [2] (setting [7]) was 1870 nM [falling, partial curve]; in assay [2] (setting [9]), 469 nM [falling, full curve].

As to `CS(=O)(=O)N1CCc2c(-c3cnc(N)nc3)nc(N3CCOCC3)nc21`, the concentration at half-maximal activity (AC50) in assay [2] (setting [7]) is 662 nM [falling, full curve]; in assay [2] (setting [9]) it was 469 nM [falling, full curve].

On to `C=CC1=C(C(=O)O)N2C(=O)[C@@H](NC(=O)C(=NO)c3csc(N)n3)[C@H]2SC1`, for which the z-score in assay [2] (setting [5]) was 1.29; in assay [2] (setting [6]), 0.643; in assay [2] (setting [8]), 0.406.

Regarding `C#C[C@]1(O)CC[C@H]2[C@H]3CCc4cc(OC)ccc4[C@H]3CC[C@@]21C`, the z-score came out at 0.712 in assay [2] (setting [5]), 0.623 in assay [2] (setting [6]) and 0.171 in assay [2] (setting [8]).

With `C=C1C(=CC=C2CCC[C@]3(C)[C@@H]([C@H](C)C=C[C@H](C)C(C)C)CC[C@@H]23)C[C@@H](O)C[C@@H]1O`, the AC50 in assay [2] (setting [7]) is 3320 nM [falling, full curve]; in assay [2] (setting [9]), 2640 nM [falling, full curve].

In the case of `CCOc1cc2ncc(C#N)c(Nc3ccc(OCc4ccccn4)c(Cl)c3)c2cc1NC(=O)C=CCN(C)C`, the AC50 in assay [2] (setting [7]) is 590 nM [falling, full curve]; in assay [2] (setting [9]), 1870 nM [falling, partial curve].

In the case of `Cc1c(-c2cccc3c(CCCOc4cccc5ccccc45)c(C(=O)O)n(Cc4cccnc4)c23)c(COc2ccc(N3CCN([S+](=O)([O-])N(C)C)CC3)cc2)nn1C`, the z-score is 0.601 in assay [2] (setting [5]), -0.0323 in assay [2] (setting [6]) and 0.291 in assay [2] (setting [8]).

Regarding `CC=C1NC(=O)[C@H]2CSSCCC=C[C@H](CC(=O)N[C@H](C(C)C)C(=O)N2)OC(=O)[C@H](C(C)C)NC1=O`, the half-maximal activity concentration (AC50) was 29.6 nM [falling, full curve] in assay [2] (setting [7]) and 118 nM [falling, full curve] in assay [2] (setting [9]).

On to `O=C(Nc1ccc(F)c(C(F)(F)F)c1)Nc1nnc(-c2ccncc2)s1`, for which the z-score in assay [2] (setting [5]) was 0.394; in assay [2] (setting [6]), 0.306; in assay [2] (setting [8]) it was 0.526.

`CO[C@H]1/C=C\O[C@@]2(C)Oc3c(C)c(O)c4c(O)c(c(C=NN5CCN(C6CCCC6)CC5)c(O)c4c3C2=O)NC(=O)C(C)=CC=C[C@H](C)[C@H](O)[C@@H](C)[C@@H](O)[C@@H](C)[C@H](OC(C)=O)[C@H]1C`: the half-maximal activity concentration (AC50) is 93.5 nM [falling, full curve] in assay [2] (setting [7]) and 187 nM [falling, full curve] in assay [2] (setting [9]).

Turning to `Cc1cnc(-c2cc(N3CCN(C(=O)CCS(C)(=O)=O)CC3)ncc2Cl)c(C)c1`, the z-score in assay [2] (setting [5]) is -0.497; in assay [2] (setting [6]) it was 0.525; in assay [2] (setting [8]), -0.296.

For the molecule `CC(=O)[C@]1(O)Cc2c(O)c3c(c(O)c2[C@@H](O[C@H]2C[C@H](N)[C@@H](O)[C@H](C)O2)C1)C(=O)c1ccccc1C3=O`, the AC50 in assay [2] (setting [7]) is 166 nM [falling, full curve]; in assay [2] (setting [9]) it was 148 nM [falling, full curve].

Regarding `CCc1cnn2c(NCc3ccc[n+]([O-])c3)cc(N3CCCC[C@@H]3CCO)nc12`, the AC50 in assay [2] (setting [7]) is 33.2 nM [falling, full curve]; in assay [2] (setting [9]) it was 37.2 nM [falling, full curve].

In the case of `Cc1c(CN2CCN(C(=O)C(C)C)CC2)sc2c(N3CCOCC3)nc(-c3cnc(N)nc3)nc12`, the AC50 in assay [2] (setting [7]) is 264 nM [falling, full curve]; in assay [2] (setting [9]), 166 nM [falling, full curve].

With `COC(=O)[C@]12CCC(C)(C)C[C@@H]1[C@@H]1C(=O)C=C3[C@@]4(C)C=C(C#N)C(=O)C(C)(C)[C@@H]4CC[C@@]3(C)[C@]1(C)CC2`, the AC50 in assay [2] (setting [7]) was 4690 nM [falling, partial curve]; in assay [2] (setting [9]) it was 418 nM [falling, full curve].

Consider `CC(=O)N1CCN(c2ccc(OCc3nn(C)c(C)c3-c3cccc4c(CCCOc5cccc6ccccc56)c(C(=O)O)n(Cc5cccnc5)c34)cc2)CC1`, for which the AC50 was 4180 nM [falling, partial curve] in assay [2] (setting [7]) and 5260 nM [falling, partial curve] in assay [2] (setting [9]).

By AC50 is commonly meant the concentration giving half of the maximal activity seen.
